Test results: patent US5473054A, “IGF-1 analogs” (Thomas Jefferson University, priority 1994, dated 1995)
Where two headings read alike, the source gives them in different places. Bridge positions count the residues as written; N and C are the ends. Square brackets hold non-standard residues; d marks the D form. Ends that are not written are not given here. Peptide text beside a SMILES is read from it.

Assays:
[1] = tested on: p6 cells; conditions: 48 hours in SFM after stimulation with 20 ng/ml IGF-1
[2] = tested on: cells in culture; experiment: Growth, toxicity and reversibility in cells in culture (summary statements); assay type: cell-based
Source text: Using the amino acid sequence of IGF-1, and the molecular modelling described above, we have synthesized short peptides which function as analogs of IGF-1. A peptide that was synthesized to comprise the last 12 amino acids of the IGF-1 sequence, when used at nanogram concentrations, completely abolishes the proliferation of a variety of cells. The peptide is non-toxic, i.e., the cells exposed to it remain viable for long periods of time. The inhibitor effect is also reversible, i.e., when the peptide is removed and growth factors are added again, the cells resume proliferation. Inhibition is close to 100%, and it should apply to all cells that require the IGF-1/IGF-1 receptor interaction for growth. These cells include the following: fibroblasts, smooth muscle cells, chondrocytes and osteoblasts, hemopoietic cells of various lineages and keratinocytes. Several of these cell types have been actually tested, and the inhibition by the IGF-1 analog is efficient (almost 100%), and reproducible. For instance, when using the IGF-1 analog, we have inhibited the growth of fibroblasts, and fibroblast-like cells, of T-lymphocytes and of epithelial cells derived from carcinoma of the prostate.
These peptides are nontoxic at the concentrations used (up to 5 μg/ml) and their effect is reversible. They inhibit a variety of cell types, as predicted from the finding that the activation of the IGF-1 receptor is required for the growth of many normal and transformed cells.

[3] = tested on: WI-38 human diploid fibroblasts; experiment: Growth of WI-38 cells in serum-supplemented medium; assay type: cell-based; conditions: 500 ng/ml, 10% FBS, 48 hours
Protocol: After treatment, the cells were stimulated with 10% FBS.
In these experiments, the inhibitory effect of JB3 (D-amino acids) was tested in serum-supplemented medium. […] The same results were obtained with p6 cells (FIG. 7) and with two lines of prostatic carcinoma cells, DU48 and PC3 (FIG. 8).

Compound | inhibition of growth of IGF-1-stimulated p6 cells ([1]; 1 μg/ml peptide) | inhibitory effect on the growth of cells in culture [2] | reversibility of the inhibitory effect [2] | toxicity to cells ([2]; at the concentrations used (up to 5 μg/ml)) | activity in the presence of serum ([2]; presence of serum) | suppression of growth of WI-38 cells [3] | inhibition of growth of IGF-1-stimulated p6 cells ([1]; 500 ng/ml peptide)
C[C@@H](O)[C@@H]1NC(=O)CNC(=O)[C@@H](N)CSSC[C@H](C(=O)O)NC(=O)[C@H](CCCNC(=N)N)NC(=O)[C@H](CCCNC(=N)N)NC(=O)[C@H](CO)NC(=O)[C@H](CO)NC(=O)[C@H](CO)NC(=O)CNC(=O)[C@H](Cc2ccc(O)cc2)NC(=O)CNC1=O [JB2] (H-CGTGYGSSSRR[dC]-OH; disulfide 1-12) | approximately 80% |  |  |  |  |  | 
Cys Ser Lys Ala Pro Lys Leu Pro Ala Ala Tyr Cys ([dC][dS][dK][dA][dP][dK][dL][dP][dA][dA][dY][dC]; disulfide 1-12 (inferred)) [JB3] |  | profound inhibitory effect | reversible | nontoxic | active | completely suppresses | completely inhibits
